{"source": "patent US11178870B2", "about": "(priority 2017, dated 2021)"}
{"tested_on": "Colletotrichum orbiculare", "details": "in vivo"}
{"molecule": "CCn1c(-c2c(F)cccc2F)c(-c2ocnc2I)cc(Cl)c1=O", "note": "[Compound 74]", "Test H control value": "H (key: H shows the control value more than 50%; L shows the control value of 50% or less)"}
{"molecule": "CCn1c(-c2c(F)cccc2F)c(-c2ccsc2)ccc1=O", "note": "[Compound 16]", "Test H control value": "H (key: H shows the control value more than 50%; L shows the control value of 50% or less)"}
{"molecule": "CCn1c(-c2c(F)cccc2F)c(-c2ocnc2F)cc(Cl)c1=O", "note": "[Compound 51]", "Test H control value": "H (key: H shows the control value more than 50%; L shows the control value of 50% or less)"}
{"molecule": "CCn1c(-c2ccc(F)cc2Cl)c(-n2cc(Cl)cn2)cc(Cl)c1=O", "note": "[Compound 157]", "Test H control value": "H (key: H shows the control value more than 50%; L shows the control value of 50% or less)"}
{"molecule": "CCn1c(-c2c(F)cccc2F)c(-c2cnc(N(C)C)o2)cc(Cl)c1=O", "note": "[Compound 131]", "Test H control value": "L (key: H shows the control value more than 50%; L shows the control value of 50% or less)"}
{"molecule": "CCn1c(-c2c(F)cc(F)cc2F)c(-c2nn(C)cc2C)cc(Cl)c1=O", "note": "[Compound 19]", "Test H control value": "H (key: H shows the control value more than 50%; L shows the control value of 50% or less)"}
{"molecule": "CCn1c(-c2c(F)cc(F)cc2F)c(-c2ocnc2Br)cc(Cl)c1=O", "note": "[Compound 113]", "Test H control value": "H (key: H shows the control value more than 50%; L shows the control value of 50% or less)"}
{"molecule": "CCn1c(-c2c(F)cc(F)cc2F)c(-n2c(Cl)ccc2Cl)cc(Cl)c1=O", "note": "[Compound 133]", "Test H control value": "H (key: H shows the control value more than 50%; L shows the control value of 50% or less)"}
{"molecule": "CCn1c(-c2ccc(F)cc2Br)c(-n2cc(Cl)cn2)cc(Cl)c1=O", "note": "[Compound 165]", "Test H control value": "H (key: H shows the control value more than 50%; L shows the control value of 50% or less)"}
{"molecule": "CCn1c(-c2c(F)cc(F)cc2F)c(-n2cc(C(F)(F)F)cn2)cc(C(F)(F)F)c1=O", "note": "[Compound 154]", "Test H control value": "L (key: H shows the control value more than 50%; L shows the control value of 50% or less)"}
{"molecule": "CCn1c(-c2c(F)cc(OC)cc2F)c(-c2oc(Br)nc2Br)cc(Br)c1=O", "note": "[Compound 102]", "Test H control value": "H (key: H shows the control value more than 50%; L shows the control value of 50% or less)"}
{"molecule": "O=c1ccc(-c2cccnc2Cl)c(-c2c(F)cccc2F)n1CC(F)(F)F", "note": "[Compound 58]", "Test H control value": "H (key: H shows the control value more than 50%; L shows the control value of 50% or less)"}
{"molecule": "COc1cc(F)c(-c2c(-n3cc(Cl)cn3)cc(Cl)c(=O)n2C)c(F)c1", "note": "[Compound 177]", "Test H control value": "H (key: H shows the control value more than 50%; L shows the control value of 50% or less)"}
{"molecule": "CCn1c(-c2c(F)cc(F)cc2F)c(-n2ncc(C)c2Cl)cc(Cl)c1=O", "note": "[Compound 83]", "Test H control value": "H (key: H shows the control value more than 50%; L shows the control value of 50% or less)"}
{"molecule": "Cn1c(-c2c(F)cccc2F)c(-c2cccnc2Cl)cc(Br)c1=O", "note": "[Compound 106]", "Test H control value": "H (key: H shows the control value more than 50%; L shows the control value of 50% or less)"}
{"molecule": "CCn1c(-c2c(F)cc(F)cc2F)c(-c2cccnc2Cl)cc(Br)c1=O", "note": "[Compound 63]", "Test H control value": "H (key: H shows the control value more than 50%; L shows the control value of 50% or less)"}
{"molecule": "CCn1c(-c2c(F)cc(OC)cc2F)c(-c2ccnn2C)cc(Cl)c1=O", "note": "[Compound 28]", "Test H control value": "H (key: H shows the control value more than 50%; L shows the control value of 50% or less)"}
{"molecule": "CCn1c(-c2c(F)cccc2F)c(-c2cnc(Cl)o2)cc(Cl)c1=O", "note": "[Compound 87]", "Test H control value": "L (key: H shows the control value more than 50%; L shows the control value of 50% or less)"}
{"molecule": "CCn1c(-c2c(F)cc(F)cc2F)c(-n2nc(C)c(Br)c2C)ccc1=O", "note": "[Compound 76]", "Test H control value": "L (key: H shows the control value more than 50%; L shows the control value of 50% or less)"}
{"molecule": "CCn1c(-c2c(F)cc(OC)cc2F)c(-c2cccnc2Cl)cc(Br)c1=O", "note": "[Compound 81]", "Test H control value": "H (key: H shows the control value more than 50%; L shows the control value of 50% or less)"}
{"molecule": "CCn1c(-c2c(F)cc(F)cc2F)c(-c2ocnc2Cl)cc(Br)c1=O", "note": "[Compound 107]", "Test H control value": "H (key: H shows the control value more than 50%; L shows the control value of 50% or less)"}
{"molecule": "CCn1c(-c2c(F)cccc2F)c(-c2cccnc2Cl)cc(Br)c1=O", "note": "[Compound 55]", "Test H control value": "H (key: H shows the control value more than 50%; L shows the control value of 50% or less)"}
{"molecule": "Cn1c(-c2c(F)cc(F)cc2F)c(-n2cc(Cl)cn2)cc(Cl)c1=O", "note": "[Compound 175]", "Test H control value": "H (key: H shows the control value more than 50%; L shows the control value of 50% or less)"}
{"molecule": "CCn1c(-c2c(F)cc(OC)cc2F)c(-c2cnco2)cc(Br)c1=O", "note": "[Compound 90]", "Test H control value": "H (key: H shows the control value more than 50%; L shows the control value of 50% or less)"}
{"molecule": "CCn1c(-c2c(F)cc(F)cc2F)c(-n2nc(C)c(Cl)c2C)ccc1=O", "note": "[Compound 95]", "Test H control value": "H (key: H shows the control value more than 50%; L shows the control value of 50% or less)"}
{"molecule": "CN1C(=O)CCC(c2ccsc2)=C1c1c(F)cccc1F", "note": "[Compound 3]", "Test H control value": "L (key: H shows the control value more than 50%; L shows the control value of 50% or less)"}
{"molecule": "CCn1c(-c2c(F)cc(OC)cc2F)c(-c2cnco2)cc(Cl)c1=O", "note": "[Compound 37]", "Test H control value": "H (key: H shows the control value more than 50%; L shows the control value of 50% or less)"}
{"molecule": "COc1cc(F)c(-c2c(-n3cc(Cl)cn3)cc(Cl)c(=O)n2CC(F)(F)F)c(F)c1", "note": "[Compound 122]", "Test H control value": "L (key: H shows the control value more than 50%; L shows the control value of 50% or less)"}
{"molecule": "CCn1c(-c2c(F)cc(OC)cc2F)c(-n2cc(Cl)c(C)n2)cc(Cl)c1=O", "note": "[Compound 143]", "Test H control value": "H (key: H shows the control value more than 50%; L shows the control value of 50% or less)"}
{"molecule": "O=c1c(Br)cc(-c2cccnc2Cl)c(-c2c(F)cc(F)cc2F)n1CC(F)F", "note": "[Compound 69]", "Test H control value": "H (key: H shows the control value more than 50%; L shows the control value of 50% or less)"}
{"molecule": "Cn1c(-c2c(F)cc(F)cc2F)c(-c2cccnc2Cl)cc(Br)c1=O", "note": "[Compound 104]", "Test H control value": "H (key: H shows the control value more than 50%; L shows the control value of 50% or less)"}
{"molecule": "CCn1c(-c2ccc(OC)cc2Cl)c(-c2ocnc2C)cc(Cl)c1=O", "note": "[Compound 39]", "Test H control value": "H (key: H shows the control value more than 50%; L shows the control value of 50% or less)"}
{"molecule": "CCn1c(-c2c(F)cc(F)cc2F)c(-n2cc(C)c(C)n2)ccc1=O", "note": "[Compound 109]", "Test H control value": "H (key: H shows the control value more than 50%; L shows the control value of 50% or less)"}
{"molecule": "CCn1c(-c2c(F)cccc2F)c(-c2cnco2)cc(Cl)c1=O", "note": "[Compound 42]", "Test H control value": "H (key: H shows the control value more than 50%; L shows the control value of 50% or less)"}
{"molecule": "CCn1c(-c2c(F)cc(F)cc2F)c(-n2cncn2)cc(Br)c1=O", "note": "[Compound 47]", "Test H control value": "H (key: H shows the control value more than 50%; L shows the control value of 50% or less)"}
{"molecule": "CCn1c(-c2c(F)cc(OC)cc2F)c(-c2ocnc2Br)cc(Br)c1=O", "note": "[Compound 103]", "Test H control value": "H (key: H shows the control value more than 50%; L shows the control value of 50% or less)"}
{"molecule": "CCn1c(-c2c(F)cc(F)cc2F)c(-n2ncc(C)c2Cl)ccc1=O", "note": "[Compound 82]", "Test H control value": "H (key: H shows the control value more than 50%; L shows the control value of 50% or less)"}
